These results are taken from the supplement of paper PMC8728848.

Holding throughout (assay): glycan array binding signal (z-score within array); higher = stronger binding
What all share (details): glycan notation: IUPAC condensed, linker removed

Test [1] concerns the target Gal(b1-4)GlcNAc(b1-2)Man(a1-3)[Gal(b1-4)GlcNAc(b1-2)Man(a1-6)]Man(b1-4)GlcNAc(b1-4)[Fuc(a1-6)]GlcNAc. In a few lines: (§1)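 The binding signal is a Z-score computed within each array. Data were drawn from 3228 arrays in the Consortium for Functional Glycomics database, restricted to those with a known protein sequence. Scores were averaged over arrays of the same protein sequence at different concentrations or buffers, and over linkers, and negative values can be taken as non-binding.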

The target of test [2] is Gal(b1-4)GlcNAc(b1-2)Man(a1-3)[Gal(b1-4)GlcNAc(b1-2)Man(a1-6)][Gal(b1-4)GlcNAc(b1-4)]Man(b1-4)GlcNAc(b1-4)[Fuc(a1-6)]GlcNAc. In a few lines:
as §1

The target of test [3] is Gal(b1-4)GlcNAc(b1-2)Man(a1-3)[Gal(b1-4)GlcNAc(b1-2)Man(a1-6)][GlcNAc(b1-4)]Man(b1-4)GlcNAc(b1-4)[Fuc(a1-6)]GlcNAc. In a few lines:
as §1

In test [4] the target is Gal(b1-4)GlcNAc(b1-2)Man(a1-3)[GlcNAc(b1-2)Man(a1-6)]Man(b1-4)GlcNAc(b1-4)GlcNAc. In a few lines: as §1
For test [5], the target named is Gal(b1-4)GlcNAc(b1-2)Man(a1-3)[GlcNAc(b1-4)][Gal(b1-4)GlcNAc(b1-2)Man(a1-6)]Man(b1-4)GlcNAc(b1-4)GlcNAc. In a few lines:
as §1

Test [6] deals with Gal(b1-4)GlcNAc(b1-2)Man(a1-3)[Man(a1-6)]Man(b1-4)GlcNAc(b1-4)GlcNAc. In a few lines:
as §1

Test [7] deals with Gal(b1-4)GlcNAc(b1-2)Man(a1-6)Man(b1-4)GlcNAc(b1-4)GlcNAc. In a few lines: as §1
Test [8] addresses Gal(b1-4)GlcNAc(b1-2)Man(a1-6)[GlcNAc(b1-2)Man(a1-3)]Man(b1-4)GlcNAc(b1-4)GlcNAc. In a few lines:
as §1

Test [9] deals with Gal(b1-4)GlcNAc(b1-2)Man(a1-6)[Man(a1-3)]Man(b1-4)GlcNAc(b1-4)GlcNAc. In a few lines: as §1
Test [10] addresses Gal(b1-4)GlcNAc(b1-2)[Gal(b1-4)GlcNAc(b1-4)]Man(a1-3)[Gal(b1-4)GlcNAc(b1-2)Man(a1-6)]Man(b1-4)GlcNAc(b1-4)GlcNAc. In a few lines: as §1
The target in test [11] is Gal(b1-4)GlcNAc(b1-2)[Gal(b1-4)GlcNAc(b1-4)]Man(a1-3)[Gal(b1-4)GlcNAc(b1-2)[Gal(b1-4)GlcNAc(b1-6)]Man(a1-6)]Man(b1-4)GlcNAc(b1-4)GlcNAc. In a few lines: as §1
Test [12] has as its target Gal(b1-4)GlcNAc(b1-2)[Gal(b1-4)GlcNAc(b1-4)]Man(a1-3)[GlcNAc(b1-4)][Gal(b1-4)GlcNAc(b1-2)Man(a1-6)]Man(b1-4)GlcNAc(b1-4)GlcNAc. In a few lines:
as §1

Test [13] deals with Gal(b1-4)GlcNAc(b1-2)[Gal(b1-4)GlcNAc(b1-4)]Man(a1-3)[GlcNAc(b1-4)][Gal(b1-4)GlcNAc(b1-2)[Gal(b1-4)GlcNAc(b1-6)]Man(a1-6)]Man(b1-4)GlcNAc(b1-4)GlcNAc. In a few lines:
as §1

Test [14] deals with Gal(b1-4)GlcNAc(b1-2)[Gal(b1-4)GlcNAc(b1-6)]Man(a1-6)[Gal(b1-4)GlcNAc(b1-2)Man(a1-3)]Man(b1-4)GlcNAc(b1-4)GlcNAc. In a few lines:
as §1

Test [15] concerns the target Gal(b1-4)GlcNAc(b1-2)[Gal(b1-4)GlcNAc(b1-6)]Man(a1-6)[Gal(b1-4)GlcNAc(b1-2)Man(a1-3)]Man(b1-4)GlcNAc(b1-4)[Fuc(a1-6)]GlcNAc. In a few lines:
as §1

Test [16] concerns the target Gal(b1-4)GlcNAc(b1-2)[Gal(b1-4)GlcNAc(b1-6)]Man(a1-6)[GlcNAc(b1-4)][Gal(b1-4)GlcNAc(b1-2)Man(a1-3)]Man(b1-4)GlcNAc(b1-4)GlcNAc. In a few lines: as §1
In test [17] the target is Gal(b1-4)GlcNAc(b1-2)[Gal(b1-4)GlcNAc(b1-6)]Man(a1-6)[GlcNAc(b1-4)][Gal(b1-4)GlcNAc(b1-2)[Gal(b1-4)GlcNAc(b1-4)]Man(a1-3)]Man(b1-4)GlcNAc(b1-4)[Fuc(a1-6)]GlcNAc. In a few lines: as §1
Test [18] concerns the target Gal(b1-4)GlcNAc(b1-3)Gal(b1-3)GalNAc. In a few lines:
as §1

The target of test [19] is Gal(b1-4)GlcNAc(b1-3)Gal(b1-3)GlcNAc. In a few lines: as §1

The list shows a part of the results.

B1: OGAA (protein)
chain: MVQKESQATLEERESELSSNPAASAGASLEPPAAPAPGEDNPAGAGGAAVAGAAGGARRFLCGVVEGFYGRPWVMEQRKELFRRLQKWELNTYLYAPKDDYKHRMFWREMYSVEEAEQLMTLISAAREYEIEFIYAISPGLDITFSNPKEVSTLKRKLDQVSQFGCRSFALLFADIDHNMCAADKEVFSSFAHAQVSITNEIYQYLGEPETFLFCPTEYCGTFCYPNVSQSPYLRTVGEKLLPGIEVLWTGPKVVSKEIPVESIEEVSKIIKRAPVIWDNIHANDYDQKRLFLGPYKGRSTELIPRLKGVLTNPNCEFEANYVAIHTLATWYKSNMNGVRKDVVMTDSEDSTVSIQIKLENEGSDEDIETDVLYSPQMALKLALTEWLQEFGVPHQY
In the case of B1, the “glycan array binding signal (z-score)” value is -0.041 in test [1]; -0.076 in test [2]; -0.009 in [3]; -0.052 in test [4]; -0.136 in [5]; -0.071 in [6]. For the same molecule, the “glycan array binding signal (z-score)” value was -0.092 in [7]; -0.081 in test [8]; -0.022 in test [9]; -0.128 in test [10]; -0.148 in [11]; 0.029 in test [12]. The “glycan array binding signal (z-score)” value in test [13] was 0.085; in [14], -0.08; in test [15], 0.085; in test [16], -0.05; in test [17] it was 0.002; in test [18], -0.11. In addition, the “glycan array binding signal (z-score)” value in test [19] is -0.097.
